Measured values as given in PubChem BioAssay AID743255 (National Center for Advancing Translational Sciences (NCATS), 2014).
Screen size: about 390,000 compounds; about 910 (0.23%) were called active. Not shown: some 5% with an inconclusive outcome. Calls follow the shape of the dose curve; as a rule, active = well fitted inhibition curve with a large enough effect; inconclusive = small, poorly fitted or top-dose-only effect; inactive = no such curve, though single readings can be large or run the other way. This is a selection; strong and weak results do not stand in their true shares. Where a structure was tested more than once in an assay, its records may differ in their call.

target: Ubiquitin carboxyl-terminal hydrolase 1 (Homo sapiens) (UniProt O94782); test: Inhibitors of USP1/UAF1: Primary Screen; conditions: recombinant USP1/UAF1, Ub-Rhodamine cleavage fluorescence; activity change, negative = inhibition: at 57.1 µM (top of the series); also: nearly all actives have a fitted effect of over 60% in size
Outline: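 USP1/UAF1 complex at 1 nM was preincubated with compound for 15 min at room temperature, then Ub-Rho substrate (150nM final) was added. Fluorescence (480/540 nm) was read kinetically, 6 reads every 60 seconds.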
% is scaled to controls: 0 for no effect and ±100 for the full control effect; potency is read from the fitted curve at half-maximal effect.

UniProt O94782, sequence (O94782 whole entry, looked up): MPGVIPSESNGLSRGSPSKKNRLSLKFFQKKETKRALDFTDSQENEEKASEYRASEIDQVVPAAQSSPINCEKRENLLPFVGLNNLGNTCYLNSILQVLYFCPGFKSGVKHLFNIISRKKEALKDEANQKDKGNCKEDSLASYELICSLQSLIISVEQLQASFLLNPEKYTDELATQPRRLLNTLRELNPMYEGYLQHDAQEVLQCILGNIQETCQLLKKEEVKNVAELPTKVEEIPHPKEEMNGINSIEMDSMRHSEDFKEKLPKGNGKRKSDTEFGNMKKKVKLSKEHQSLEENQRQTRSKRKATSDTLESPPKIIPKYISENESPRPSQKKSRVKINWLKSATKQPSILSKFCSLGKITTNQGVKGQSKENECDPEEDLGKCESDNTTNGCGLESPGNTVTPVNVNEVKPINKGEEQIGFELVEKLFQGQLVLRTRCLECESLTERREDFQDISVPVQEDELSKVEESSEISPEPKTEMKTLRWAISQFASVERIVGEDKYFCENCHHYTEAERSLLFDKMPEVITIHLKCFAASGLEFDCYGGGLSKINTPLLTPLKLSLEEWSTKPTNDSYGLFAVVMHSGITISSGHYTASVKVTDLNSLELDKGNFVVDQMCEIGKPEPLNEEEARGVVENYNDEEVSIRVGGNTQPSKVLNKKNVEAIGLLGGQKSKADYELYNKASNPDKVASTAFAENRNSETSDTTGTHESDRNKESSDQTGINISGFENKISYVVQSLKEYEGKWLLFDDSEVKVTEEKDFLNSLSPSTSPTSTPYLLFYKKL

Compound | activity change, negative = inhibition | Potency
COc1cc(NC(=O)Cn2c(C)cc3ccccc3c2=O)cc(OC)c1OC | inactive: -7.37% | 
CCCN1C(=O)/C(=C/C=C2\N(CC)c3ccccc3C2(C)C)SC1=S | inactive: 75.5% | 
C[C@@H]1CN([C@H](C)CO)C(=O)c2cc(Br)cnc2O[C@H]1CN(C)C(=O)Cc1ccccc1 | inactive: -16.1% | 
CC1CC(=O)c2c(cc3c(-c4c(O)cc(O)c5c(O)c6c(cc45)OC(C)CC6=O)c(O)cc(O)c3c2O)O1 (configuration not stated) |  | active: 31.6 µM
O=C(Nc1ccccc1)c1ccc(NCCc2ccccc2)c([N+](=O)[O-])c1 | inactive: 77.9% | 
O=C(Nc1ccc2c(c1)OCCO2)c1coc2ccccc2c1=O | inactive: 82.7% | 
CCN1C(=O)[C@@H]2[C@@H](c3ccc(-c4ccc(Cl)c(Cl)c4)c(OC)c3)N3CCCC[C@@]3(C(=O)OC)[C@@H]2C1=O | inactive: -15.5% | 
O=C(Nc1ccccc1)C1=C[C@@H](c2ccc(C(F)(F)F)cc2)C[C@@H](OCCCCO)O1 | inactive: -17.3% | 
CC(C)(C)OC(=O)C[C@@H]1C/C=C\C[C@H](CC(=O)N(CCO)Cc2ccccc2)C(=O)N[C@@H](Cc2ccccc2)COC1=O | inactive: -28% | 
C[C@@H]1CN([C@H](C)CO)C(=O)CCCn2nncc2CO[C@@H]1CN(C)S(=O)(=O)c1ccc(-n2cccn2)cc1 | inactive: -19.7% | 
CC1(C)C2CC[C@]3(C)C(CC=C4[C@@H]5C[C@@](C)(CO)CC[C@]5(C(=O)O)CC[C@]43C)[C@@]2(C)CC[C@@H]1O (some centres not stated) | inactive: -25.7% | 
OCC[C@@H]1C[C@@H](O)[C@H](O)[C@@]2(CCCCO2)O1 | inactive: -8.91% | 
O=C(Nc1ccccc1)/C(=C/c1ccc(F)cc1)NC(=O)c1ccco1 | inactive: -18.7% | 
Cc1cc2oc(C(=O)N(Cc3ccc(N(C)C)cc3)CC3CCCO3)c(C)c2cc1C (configuration not stated) | inactive: -20.5% | 
CC(C)(C)OC(=O)C[C@H]1C/C=C\C[C@H](CC(=O)N[C@H](CO)Cc2ccccc2)C(=O)N[C@H](C(C)(C)C)COC1=O | inactive: 10.1% | 
COC(=O)c1ccc(NC(=O)c2nn(C)c3c2COc2ccccc2-3)cc1 | inactive: 121% | 
O=C(O)c1cc(O)c2c(c1)[C@@H]([C@H]1c3cc(C(=O)O)cc(O)c3C(=O)c3c(O[C@@H]4O[C@H](CO)[C@@H](O)[C@H](O)[C@H]4O)cccc31)c1cccc(OC3O[C@H](CO)[C@@H](O)[C@H](O)[C@H]3O)c1C2=O (some centres not stated) |  | active: 5.62 µM
Cc1ccc(NC(=O)C2CCN(S(=O)(=O)c3c(C)noc3C)CC2)cc1C | inactive: -17.9% | 
CC(C)C[C@H](NC(=O)c1[nH]cnc1C(=O)N[C@@H](C)c1ccccc1)C(=O)OC(C)(C)C | inactive: -19% | 
CC(C)OC(=O)N(C)C[C@H]1OCc2cnnn2CCCC(=O)N([C@@H](C)CO)C[C@H]1C | inactive: -28.2% | 
CN1CCC2(CC1)C1CN(C)CC=C1C(C#N)=C(N)C2(C#N)C#N (configuration not stated) | inactive: -18.7% | 

Compound | activity change, negative = inhibition | Potency
CN(C(=O)CCNC(=O)Cn1cnc2ccccc2c1=O)c1ccccc1F | inactive: -1.59% | 
Cc1ccccc1CS(=O)(=O)Cc1ccc(C(=O)NCCc2ccccc2)o1 | inactive: -11.9% | 
C[C@@H]1COC(=O)[C@@H](Cc2ccc(F)cc2)C/C=C\C[C@@H](CC(=O)NCCO)C(=O)N1 | inactive: -18.3% | 
CCN(CC)CCCC(C)n1c2nc(=O)[nH]c(=O)c-2nc2cc(Cl)ccc21 (configuration not stated) |  | active: 25.1 µM
COC(=O)[C@@H]1Cc2c([nH]c3ccccc23)C2CCC(=O)N21 (some centres not stated) | inactive: -9.37% | 
C[C@@H](C(=O)NCCc1c[nH]c2ccccc12)[C@@H]1C[C@@]1(C)[C@@H](NC(=O)OCc1ccccc1)c1ccccc1 | inactive: -16.1% | 
C=CCn1c(C)c(/C=C/c2cc[n+](C)cc2)c2ccccc21 |  | active: 35.5 µM
O=C1NC[C@@H](c2ccccc2)OC(=O)[C@H](Cc2ccc(F)cc2)C/C=C\C[C@@H]1CC(=O)N(CCO)Cc1ccccc1 | inactive: -7.07% | 
C=C(C)C(=O)Nc1cccc(C2=NOC3(C2)C[C@@H](C(N)=O)N(C(=O)c2ccc(OC)cc2)C3)c1 (some centres not stated) | inactive: 66.9% | 
C[C@H]1CN([C@@H](C)CO)C(=O)CCCn2nncc2CO[C@@H]1CN(C)S(=O)(=O)c1ccc(-n2cccn2)cc1 | inactive: -8.17% | 
COc1cccc(S(=O)(=O)N(C)C[C@@H]2OCc3cnnn3CCCC(=O)N([C@H](C)CO)C[C@H]2C)c1 | inactive: 80.7% | 
CCn1c2ccccc2c2nnc(N3CCN(c4cc(C)ccc4C)CC3)nc21 | inactive: 33.8% | 
C[C@H]1CN([C@@H](C)CO)C(=O)CCCn2nncc2CO[C@H]1CN(C)C(=O)c1cc(-c2ccccc2)on1 | inactive: -20.5% | 
O=C(c1ccc2c(c1)N(Cc1ccccc1)C(=O)c1ccccc1S2(=O)=O)N1CCCC1 | inactive: 28.9% | 
Cc1cccc(N2CCN(C(=O)c3nn(C)c4c3CS(=O)(=O)c3ccccc3-4)CC2)c1C | inactive: 0.12% | 
C=CCC[C@H](Cc1ccc(F)cc1)C(=O)OC[C@@H](C)NC(=O)[C@H](CC=C)CC(=O)N(CCO)Cc1ccccc1 | inactive: -33.4% | 
Cc1cc(C)c(-c2n[nH]c3c2C(c2ccccc2F)N(Cc2ccco2)C3=O)c(O)c1 (configuration not stated) | inactive: 21% | 
Cc1ccc(S(=O)(=O)N2CCOC23CCN(C(=O)C(=O)NCCC(C)C)CC3)cc1 | inactive: 29.2% | 
NC(=NCCCCCCN=C(N)/N=C(\N)Nc1ccc(Cl)cc1)/N=C(\N)Nc1ccc(Cl)cc1 |  | inactive
C=CCC[C@H](Cc1ccc(F)cc1)C(=O)OC[C@H](Cc1c[nH]c2ccccc12)NC(=O)[C@@H](CC=C)CC(=O)N(CCO)Cc1ccccc1 | inactive: -15.9% | 
CCOc1ccccc1NC(=O)CCS(=O)(=O)c1cccc2nsnc12 | inactive: -19.6% | 

Compound | activity change, negative = inhibition | Potency
COc1ccc2cc(C(=O)N/N=C/c3sc4ccccc4c3O)ccc2c1 |  | active: 28.2 µM
CCc1ccccc1NC(=O)/C(C#N)=C/c1ccc(Sc2ccccc2)o1 | inactive: -9.64% | 
Cn1c(=O)oc2cc(S(=O)(=O)N3CCC(C(=O)NCc4ccccc4Cl)CC3)ccc21 | inactive: -1.96% | 
NC(=O)CSc1oc(-c2ccco2)nc1S(=O)(=O)c1ccc(Br)cc1 | inactive: -17.7% | 
COc1cc(NC(=O)CN(c2cc(C)cc(C)c2)S(=O)(=O)c2c(C)[nH]c(=O)[nH]c2=O)cc(OC)c1 | inactive: -18.1% | 
C[C@H]1CN([C@@H](C)CO)C(=O)CCCn2nncc2CO[C@H]1CN(C)C(=O)c1ccccc1 | inactive: 0.0802% | 
COc1cccc(CNc2ccc3c(c2)ncn3C)c1OC | inactive: -25% | 
Cc1cc(C)cc(NC(=O)Cn2nnc(C(=O)NCc3ccco3)c2N)c1 | inactive: -17.4% | 
COCC(=O)N(C)C[C@@H]1Oc2cc(Br)ccc2S(=O)(=O)N([C@H](C)CO)C[C@H]1C | inactive: -15.9% | 
COc1ccc(-c2cc(C)no2)cc1S(=O)(=O)N1CCN(c2cccc(C)c2)C(C)C1 (configuration not stated) | inactive: -24.6% | 
C/C(N)=C(/C#N)C(=O)CSc1nnc(Nc2cccc(C)c2)s1 | inactive: -5.7% | 
O=C1/C(=C\c2cccs2)SC(=S)N1C1CCS(=O)(=O)C1 (configuration not stated) | inactive: -19.2% | 
CC(C)NC(=O)N(C)C[C@@H]1Oc2cc(Br)ccc2S(=O)(=O)N([C@@H](C)CO)C[C@H]1C | inactive: -24.3% | 
CCCCCCN1C[C@@H](n2cc(COC(=O)c3ccccc3)nn2)[C@H](O)C[C@@H]1c1ccc(Cl)cc1 | inactive: -6.52% | 
O=C(C[C@@H]1C/C=C\C[C@H](NC(=O)OCC2c3ccccc3-c3ccccc32)C(=O)OC[C@H]2CCCN2C1=O)NCCO | inactive: -6.9% | 
C[C@@H]1NS(=O)(=O)c2cc(Cl)ccc2O[C@@H]1c1ccccc1 | inactive: -8.84% | 
O=C(NC1CC1)C1=C[C@@H](c2coc3ccccc3c2=O)C[C@@H](OCc2ccc(CO)cc2)O1 | inactive: -22.3% | 
Cc1ccccc1CN(C)C[C@@H]1OCc2cnnn2CCCC(=O)N([C@@H](C)CO)C[C@H]1C | inactive: -20.2% | 
COc1ccc(N(CC(=O)NCc2ccc(F)cc2)S(=O)(=O)c2c(C)noc2C)cc1 | inactive: -27.5% | 
CCc1nonc1NC(=O)c1oc2ccc(F)cc2c1C | inactive: -11.9% | 
